Hit rate of the full screen: of about 48,000 compounds, about 1,200 (2.5%) were called active. Another 2% or so got no clear call; they are omitted.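 Rule for the calls: active = activation of at least 60% and not above a set upper limit (about 1 call in 100 departs from these limits); inconclusive = activation of 40% to 60%, or above that upper limit; inactive = activation under 40%.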 The list shows a part of the results.
Each compound was assayed against Probable G-protein coupled receptor 32 (Homo sapiens) (UniProt O75388) (assay: qHTS for Agonists of Human Resolvin D1 Receptor DRV1). Conditions: CHO-K1 GPR32 beta-arrestin PathHunter luminescence, 90 min; at 76.9 µM; hits give high values; zero percent set by DMSO-only wells.
How it was run: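 Agonism was scored by beta-Gal fragment complementation (chemiluminescent read, 1 h detection at ambient temperature) reporting beta-arrestin binding to GPR32 in engineered CHO-K1 cells. Compound treatment lasted 90 min at 37 C, normalized to a DMSO basal control.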
Note: 0% is about no effect.

Sequence of UniProt O75388 (O75388 whole entry, looked up, the tested form may be a part): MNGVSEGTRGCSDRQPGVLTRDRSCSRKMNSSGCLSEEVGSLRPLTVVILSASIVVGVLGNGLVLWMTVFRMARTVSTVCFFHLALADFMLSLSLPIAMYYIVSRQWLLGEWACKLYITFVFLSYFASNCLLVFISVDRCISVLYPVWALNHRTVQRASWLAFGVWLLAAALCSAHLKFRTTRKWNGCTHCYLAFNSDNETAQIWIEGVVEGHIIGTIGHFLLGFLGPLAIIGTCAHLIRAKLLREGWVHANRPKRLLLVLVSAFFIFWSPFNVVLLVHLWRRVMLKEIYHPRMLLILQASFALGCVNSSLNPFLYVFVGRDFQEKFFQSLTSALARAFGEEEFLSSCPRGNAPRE

| SMILES | activation |
| --- | --- |
| CCOc1ccc(-c2nnc(SCC(=O)NCCC(C)C)nc2-c2ccc(OCC)c(OC)c2)cc1OC | inactive: -7.8% |
| Cc1cn2c(=O)c(S(=O)(=O)NCCc3ccccc3)c(C)nc2s1 | inactive: 2.6% |
| COc1ccc2nc(NC(=O)c3nc(SCc4ccc(F)cc4)ncc3Cl)sc2c1 | inactive: 45.4% |
| COc1ccc2nc(SCC(=O)c3c(C)[nH]c4ccccc34)nc(C)c2c1 | inactive: 18.1% |
| CCOc1ccc(OCC)c(NC(=O)C2CCN(S(=O)(=O)c3ccc(Br)s3)CC2)c1 | inactive: -17.6% |
| Cc1ccc(N2CCN(C(=O)Cc3c(C(=O)O)c(C)cn3C)CC2)c(C)c1 | inactive: -14.1% |
| Cc1ccc(S(=O)(=O)c2nnn3c2nc(N2CCN(c4ccc(F)cc4)CC2)c2cc(Cl)ccc23)cc1C | inactive: 1.81% |
| O=C(Nc1ccc(F)cc1)[C@H](CSCc1ccccc1)N1Cc2ccccc2C1=O | inactive: 10.6% |
| Cc1cccc(NC(=O)N2CCc3c(sc4c3CCCC4)C2c2ccc(F)cc2)c1 (stereo not given) | inactive: 9.39% |
| COc1cccc(-n2c(=O)c3c(C)c(C(=O)N(C)C)sc3n(CC(=O)NCCc3ccc(OC)c(OC)c3)c2=O)c1 | inactive: -1.32% |
| COc1ccc(-c2nc(C)c(CCNC(=O)Cc3ccc(F)cc3)s2)cc1OC | inactive: 10.9% |
| CCc1ccc(NC(=O)C2CCN(C(=O)N3CC(CC)Oc4ccccc43)CC2)cc1 (stereo not given) | inactive: -9.65% |
| CCc1ccc(NC(=O)CSc2nc3nccnc3c(=O)n2CCc2c[nH]c3ccccc23)cc1 | inactive: 7.42% |
| NC(=O)c1cccnc1 | inactive: -17.1% |
| OCc1ccc(-c2nn(Cc3ccccc3)c3ccccc23)o1 | inactive: -28.7% |
| Cc1cc(C)n2nc(SCC(=O)Nc3ccccc3)nc2n1 | inactive: 5.17% |
| COc1cc(-c2nnc(SCC(=O)Nc3ccc(F)c(Cl)c3)o2)cc(OC)c1OC | inactive: 1.16% |
| CC(C)N(Cc1ccccc1)C(=O)CCS(=O)(=O)c1cc2c(cc1Cl)NC(=O)CO2 | inactive: 6.09% |
| Cc1cc(NC(=O)C(C)C)cc(-c2nc3ncccc3o2)c1O | inactive: 20% |
| Cc1ccc2nc(-c3ccc(O)cc3)c(Nc3ccc4c(c3)OCO4)n2c1 | inactive: -13.8% |
| Cc1oc(-c2ccc(Cl)cc2)nc1CS(=O)CC(=O)NCc1ccc(Cl)cc1 (stereo not given) | inactive: -8.84% |
| CCCNC(=O)C1CCN(S(=O)(=O)c2ccc3c(c2)CCCN3C(C)=O)CC1 | inactive: -9.84% |

| SMILES | activation |
| --- | --- |
| Cc1cc2nc(-c3cc(NC(=O)c4cc5ccccc5o4)ccc3Cl)oc2cc1C | inactive: -0.959% |
| COc1cccc(C(=O)Nc2ccccc2OCc2cc(=O)n3cc(C)ccc3n2)c1 | inactive: -7.73% |
| CCc1ccc(NC(=O)CSc2nc3n[nH]c(C)c3c(=N)n2-c2ccccc2C)cc1 | active: 61.7% |
| COc1ccc(N(CC(=O)NCCc2cccc(C)c2)S(=O)(=O)c2c(C)nn(C)c2C)cc1 | inactive: 0.265% |
| COc1ccccc1N1CCN(C(CNC(=O)C(=O)NCCCN(C)C)c2cccnc2)CC1 (stereo not given) | inactive: 3.11% |
| CCOC(=O)C1=C(CS(=O)(=O)c2c(C)cc(C)cc2C)NC(=O)NC1c1cccc(OC)c1 (stereo not given) | inactive: 24.4% |
| O=C1CC(c2ccccc2C(F)(F)F)c2c(c3ccccc3[nH]c2=O)O1 (stereo not given) | inactive: 4.44% |
| N#Cc1c(NC(=O)c2cc3nc(-c4ccc(Br)cc4)cc(C(F)(F)F)n3n2)sc2c1CCCC2 | inactive: -10.1% |
| Cn1c(=O)c2c(ncn2CC(O)CO)n(C)c1=O (stereo not given) | inactive: -25.7% |
| CCOc1ccc(-c2c(C)nn3c(C)c(C(=O)Nc4ccccc4C(=O)OC)cnc23)cc1OCC | inactive: 2.29% |
| COC(=O)c1cccc(Nc2c(-c3ccc(O)c(OC)c3)nc3nc[nH]n23)c1 | inactive: -23.7% |
| COCc1cc(C)nc2sc3c(c12)NC(c1ccc(O)cc1)N(c1ccc(OC)cc1)C3=O (stereo not given) | inactive: -23.5% |
| CCOc1ccc(NC(=O)C2Cc3ccccc3N2C(=O)c2ccccc2)cc1 (stereo not given) | inactive: -12% |
| CCCCOc1ccc(CNC(=O)C2CCN(c3nnc(-n4cccc4CNc4ccc(C)cc4)s3)CC2)cc1 | inactive: -18.2% |
| COCCn1c(C)cc(O)c(C(c2ccccc2)N2CCN(C)CC2)c1=O (stereo not given) | inactive: -18.7% |
| Cc1ccc(-c2nc3cc(C(C)C)ccc3o2)cc1NC(=O)c1cccs1 | inactive: 0.727% |
| COc1cc(Cn2c(=O)sc3ccccc32)ccc1OC(C)C | inactive: 0.731% |
| COc1ccccc1NC(=O)Cc1c(C(=O)O)[nH]c2ccc(Cl)cc12 | inactive: -19.5% |
| CCOC(=O)c1ccccc1NC(=O)N1CCC(N2CCN(Cc3ccccc3)C(=O)C2=O)CC1 | inactive: 4.15% |
| COC(=O)c1scc(-c2ccc(C)cc2)c1S(=O)(=O)N1CCN(c2ccc(OC)cc2)CC1 | inactive: -2.51% |
| COc1cc(OC)c(Nc2nc3ccccc3nc2-n2nc(C)cc2C)cc1Cl | inactive: -25.2% |
| O=C(Cn1c(=O)n(CC2CCCO2)c(=O)c2ccccc21)Nc1cccc(Cl)c1 (stereo not given) | inactive: -2.83% |

| SMILES | activation |
| --- | --- |
| Cc1ccc(-c2nc3nc(C)cc(Nc4ccccc4O)n3n2)cc1 | active: 72% |
| CCS(=O)(=O)N1CCc2cc(C(=O)NCc3ccccc3)ccc21 | inactive: 9.27% |
| Cc1ccc(N)cc1O | inactive: -20.5% |
| Cc1ccc(CCn2c3c(c4cc(Cl)ccc42)CN(C)CC3)cn1 | inactive: -4.74% |
| COc1cc(OC)c(NS(=O)(=O)c2cc(-c3cnc(C)o3)ccc2OC)cc1Cl | inactive: -12.7% |
| Cc1ccc2oc(-c3cc(NC(=O)c4ccco4)ccc3Cl)nc2c1 | inactive: 42.5% |
| CSc1ncc(C(=O)Nc2ccc(F)cc2F)c(-c2ccccc2)n1 | inactive: 43.5% |
| CCCC1=Nc2cc(C(=O)NCCc3ccc(OC)cc3OC)ccc2Sc2ccccc21 | inactive: -4.26% |
| CCOc1ccc(OCC)c(NC(=O)CCC(=O)N2CCOc3ccccc32)c1 | inactive: -23.4% |
| COCCCNc1nc2c(S(=O)(=O)c3ccc(C)c(C)c3)nnn2c2ccc(Cl)cc12 | inactive: -8.73% |
| Cc1ccc(NC(=O)CN2C(=O)CCn3nc(-c4cccn4C)cc32)cc1 | inactive: -0.458% |
| Cc1cn(C)c(CC(=O)NCc2ccccc2Cl)c1C(=O)O | inactive: -8.95% |
| Cc1ccc(CNC(=O)c2nn(C)c3c2CS(=O)(=O)c2ccccc2-3)cc1 | inactive: -7.7% |
| CCOC(=O)c1ccc(N2C(=O)c3n[nH]c(-c4ccco4)c3C2c2ccc(O)c(OC)c2)cc1 (stereo not given) | inactive: 6.52% |
| CCN(CC)CCNC(=O)c1nn(C)c2c1CS(=O)(=O)c1ccccc1-2 | inactive: 2.98% |
| CCC(=O)N1c2ccccc2CC1C(=O)NCCc1ccc(C)cc1 (stereo not given) | inactive: -7.84% |
| CCC(C)OC(=O)/C(C#N)=C\c1ccc(-c2ccccc2Cl)o1 (stereo not given) | inactive: 3.14% |
| O=C(Nc1nc2nc(-c3ccccc3)cc(=O)n2[nH]1)c1ccc(Cl)cc1 | inactive: 7.05% |
| CNC(=O)COc1ccc(NC(=O)CCn2nc(-c3ccc(C)cc3)c3ccccc3c2=O)cc1 | inactive: -5.79% |
| C=CC(=O)c1ccc(CCCCCC)cc1 | inactive: 11.4% |
| COc1ccc(-n2nc(C(=O)N3CCN(c4cccc(C)c4C)CC3)c3c4ccccc4n(C)c3c2=O)cc1 | inactive: -9.1% |
| O=C(CSCc1nc2cccnc2n1C1CCCCC1)NCc1cccc(Cl)c1 | inactive: -25.8% |

| SMILES | activation |
| --- | --- |
| COc1ccc(NC(=O)c2sc3nc4n(c(=O)c3c2C)CCC4)cc1Cl | inactive: -9.17% |
| O=C1c2[nH]nc(-c3ccc(Br)cc3)c2C(c2cccc(O)c2)N1c1ccc(Cl)cc1 (stereo not given) | active: 95.7% |
| Cc1ccc2scc(N3CCN(c4ccc(F)cc4)CC3)c(=O)c2c1 | inactive: -43.7% |
| COc1ccc(-n2c3c(cc(-c4nc(-c5ccc(Cl)cc5)cs4)c2=O)C(=O)CC(C)(C)C3)cc1 | inactive: 4.79% |
| COc1cc(C)ccc1OCCn1c(-c2ccc(Cl)cc2)nc2ccccc2c1=O | inactive: 5.94% |
| COc1ccc2c(c1)sc1ncc(C(=O)NCc3cccc(Cl)c3)c(=O)n12 | inactive: -10.9% |
| COc1ccc(CCNC(=O)c2ccc3c(c2)N(Cc2cccc(Cl)c2)C(=O)CS3)cc1OC | inactive: -0.96% |
| COc1ccc(C2c3c(n(C)c4ccccc34)C(=O)N2CC(=O)Nc2ccccc2F)cc1 (stereo not given) | inactive: -27.7% |
| O=C(NCc1ccc(Cl)cc1)c1cnc2sc(N3CCCC3)nn2c1=O | inactive: 3.98% |
| CCOc1ccc(C(c2c(O)cc(C)n(CCOC)c2=O)N2CCC(C)CC2)cc1 (stereo not given) | inactive: -9.77% |
| COc1ccc(Cl)cc1NC(=O)CN(c1cccc(C)c1C)S(=O)(=O)c1ccccc1 | inactive: -17.4% |
| O=C(CC1N=C2c3ccccc3N=C(SCc3ccccc3F)N2C1=O)NCc1ccc2c(c1)OCO2 (stereo not given) | inactive: 13.9% |
| O=C(Cc1ccc(NC(=O)N2CCSc3ncccc32)cc1)NCCc1ccccc1 | inactive: -0.533% |
| Cc1ccc(CCNC(=O)c2ccc(CSCc3ccccc3Cl)o2)cc1 | inactive: -16.4% |
| Cc1ccc(N(C)S(=O)(=O)c2nnc(NC(=O)C3CCCCC3)s2)cc1 | inactive: -5.85% |
| CCc1ccc(CNC(=O)c2cc(-c3ccc(Cl)s3)nc3ccccc23)cc1 | inactive: -10.2% |
| CCOC(=O)N1CCc2c(sc3c2c(=O)n(-c2ccc(CC)cc2)c(=O)n3CC(=O)Nc2ccc(C)cc2)C1 | inactive: -14.2% |
| CCOc1ccc(CNC(=O)c2ccc3c(c2)c(C)c(C)n3Cc2ccc(Cl)cc2)cc1 | inactive: -20.6% |
| CN(C)S(=O)(=O)n1cc(/C=C(\NC(=O)c2ccccc2)C(=O)NCCCn2ccnc2)c2ccccc21 | inactive: -0.041% |
